Data taken from PMC10816717.
Results are given in words; binding and its absence hold for the method and conditions named. In cells and extracts the contact can be indirect. Some entries that bind do so weakly or less than the wild type. One block for each substance: values may come before it.

Amino acid sequences for entries named in this document (tags omitted). Residues count along the entry.
UniProt Q14416, residues 19-872: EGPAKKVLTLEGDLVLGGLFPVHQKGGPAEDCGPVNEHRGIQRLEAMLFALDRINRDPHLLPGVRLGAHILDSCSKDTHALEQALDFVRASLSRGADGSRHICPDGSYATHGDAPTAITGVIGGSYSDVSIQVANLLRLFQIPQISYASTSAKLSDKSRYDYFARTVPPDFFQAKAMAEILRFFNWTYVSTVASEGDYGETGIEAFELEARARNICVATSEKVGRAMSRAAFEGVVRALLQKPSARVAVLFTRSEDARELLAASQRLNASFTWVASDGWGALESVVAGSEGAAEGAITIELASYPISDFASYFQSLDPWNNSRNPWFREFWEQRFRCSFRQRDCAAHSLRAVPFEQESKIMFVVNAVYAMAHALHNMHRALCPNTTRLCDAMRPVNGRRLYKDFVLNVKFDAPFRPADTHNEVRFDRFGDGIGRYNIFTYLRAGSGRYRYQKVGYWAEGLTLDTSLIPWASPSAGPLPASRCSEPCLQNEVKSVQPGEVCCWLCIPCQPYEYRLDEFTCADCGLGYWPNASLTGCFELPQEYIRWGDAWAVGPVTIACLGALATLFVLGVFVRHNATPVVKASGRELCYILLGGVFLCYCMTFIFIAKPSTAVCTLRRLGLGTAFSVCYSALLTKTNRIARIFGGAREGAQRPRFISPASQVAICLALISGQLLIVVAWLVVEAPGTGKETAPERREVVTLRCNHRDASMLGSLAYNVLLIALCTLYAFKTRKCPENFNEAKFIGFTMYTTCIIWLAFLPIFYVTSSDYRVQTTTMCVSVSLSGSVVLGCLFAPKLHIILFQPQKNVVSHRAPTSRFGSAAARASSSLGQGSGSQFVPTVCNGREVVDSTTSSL
UniProt Q14832, residues 23-879: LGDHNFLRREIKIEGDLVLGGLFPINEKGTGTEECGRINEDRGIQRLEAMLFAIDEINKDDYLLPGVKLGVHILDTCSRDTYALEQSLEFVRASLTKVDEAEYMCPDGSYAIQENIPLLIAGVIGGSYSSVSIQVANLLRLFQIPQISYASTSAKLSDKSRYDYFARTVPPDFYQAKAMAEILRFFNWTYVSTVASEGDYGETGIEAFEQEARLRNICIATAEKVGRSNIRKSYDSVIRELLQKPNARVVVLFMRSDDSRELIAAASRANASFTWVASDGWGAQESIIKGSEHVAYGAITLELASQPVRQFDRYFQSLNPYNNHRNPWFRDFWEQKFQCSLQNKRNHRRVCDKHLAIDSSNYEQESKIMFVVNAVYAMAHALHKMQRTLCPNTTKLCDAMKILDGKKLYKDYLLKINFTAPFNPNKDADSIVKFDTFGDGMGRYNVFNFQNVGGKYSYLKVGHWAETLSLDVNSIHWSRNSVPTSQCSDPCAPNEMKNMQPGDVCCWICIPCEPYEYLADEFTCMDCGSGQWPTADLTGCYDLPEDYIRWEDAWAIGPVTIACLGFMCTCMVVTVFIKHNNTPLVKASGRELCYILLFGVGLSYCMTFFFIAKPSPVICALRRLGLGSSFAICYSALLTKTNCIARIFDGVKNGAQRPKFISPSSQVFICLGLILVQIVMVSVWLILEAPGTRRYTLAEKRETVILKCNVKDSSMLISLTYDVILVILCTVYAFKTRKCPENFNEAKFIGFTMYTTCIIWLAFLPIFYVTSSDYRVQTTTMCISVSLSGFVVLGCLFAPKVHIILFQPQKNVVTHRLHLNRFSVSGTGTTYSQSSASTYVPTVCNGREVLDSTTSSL
UniProt Q14BI2, residues 19-872: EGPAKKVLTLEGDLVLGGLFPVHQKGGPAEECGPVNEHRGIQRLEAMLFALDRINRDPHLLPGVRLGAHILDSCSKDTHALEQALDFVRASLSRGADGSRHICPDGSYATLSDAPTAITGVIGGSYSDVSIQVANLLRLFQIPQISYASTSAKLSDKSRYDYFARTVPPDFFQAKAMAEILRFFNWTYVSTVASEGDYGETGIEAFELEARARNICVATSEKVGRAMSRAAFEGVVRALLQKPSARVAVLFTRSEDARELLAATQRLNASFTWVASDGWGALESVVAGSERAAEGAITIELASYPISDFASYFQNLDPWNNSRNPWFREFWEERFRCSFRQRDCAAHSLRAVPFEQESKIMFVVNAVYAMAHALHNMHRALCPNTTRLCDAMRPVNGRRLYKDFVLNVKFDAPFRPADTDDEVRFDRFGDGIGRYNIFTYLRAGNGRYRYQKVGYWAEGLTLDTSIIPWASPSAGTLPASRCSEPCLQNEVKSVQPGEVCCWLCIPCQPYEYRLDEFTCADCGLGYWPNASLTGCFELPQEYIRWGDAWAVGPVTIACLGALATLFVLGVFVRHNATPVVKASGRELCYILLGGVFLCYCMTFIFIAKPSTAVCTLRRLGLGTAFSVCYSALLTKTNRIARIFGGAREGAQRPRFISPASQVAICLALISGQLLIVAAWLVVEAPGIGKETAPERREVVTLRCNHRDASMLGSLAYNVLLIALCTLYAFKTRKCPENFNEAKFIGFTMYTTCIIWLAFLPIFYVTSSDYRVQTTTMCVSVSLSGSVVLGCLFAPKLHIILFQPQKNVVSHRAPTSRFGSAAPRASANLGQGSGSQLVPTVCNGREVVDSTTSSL
UniProt Q16620, residues 32-822: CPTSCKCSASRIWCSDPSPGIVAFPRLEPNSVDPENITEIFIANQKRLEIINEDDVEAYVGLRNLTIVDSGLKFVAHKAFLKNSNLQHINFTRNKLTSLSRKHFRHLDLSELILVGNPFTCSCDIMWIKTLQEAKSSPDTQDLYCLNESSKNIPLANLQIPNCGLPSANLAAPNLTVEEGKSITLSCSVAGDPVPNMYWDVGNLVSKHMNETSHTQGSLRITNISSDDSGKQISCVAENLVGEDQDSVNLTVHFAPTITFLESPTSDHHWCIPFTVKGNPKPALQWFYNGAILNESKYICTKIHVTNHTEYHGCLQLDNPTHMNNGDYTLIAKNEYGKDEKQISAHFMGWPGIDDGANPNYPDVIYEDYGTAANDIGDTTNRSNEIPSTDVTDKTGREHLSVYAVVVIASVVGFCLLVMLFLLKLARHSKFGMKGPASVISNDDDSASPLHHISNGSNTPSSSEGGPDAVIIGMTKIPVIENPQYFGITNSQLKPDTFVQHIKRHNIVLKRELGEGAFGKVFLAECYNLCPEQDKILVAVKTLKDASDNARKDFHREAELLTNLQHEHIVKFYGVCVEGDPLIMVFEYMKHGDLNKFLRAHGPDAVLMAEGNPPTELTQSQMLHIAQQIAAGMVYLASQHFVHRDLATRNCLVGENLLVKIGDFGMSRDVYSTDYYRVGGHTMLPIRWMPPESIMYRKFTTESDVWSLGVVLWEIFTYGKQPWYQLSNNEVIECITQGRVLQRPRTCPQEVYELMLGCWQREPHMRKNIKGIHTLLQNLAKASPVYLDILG
UniProt P41594, residues 21-1212: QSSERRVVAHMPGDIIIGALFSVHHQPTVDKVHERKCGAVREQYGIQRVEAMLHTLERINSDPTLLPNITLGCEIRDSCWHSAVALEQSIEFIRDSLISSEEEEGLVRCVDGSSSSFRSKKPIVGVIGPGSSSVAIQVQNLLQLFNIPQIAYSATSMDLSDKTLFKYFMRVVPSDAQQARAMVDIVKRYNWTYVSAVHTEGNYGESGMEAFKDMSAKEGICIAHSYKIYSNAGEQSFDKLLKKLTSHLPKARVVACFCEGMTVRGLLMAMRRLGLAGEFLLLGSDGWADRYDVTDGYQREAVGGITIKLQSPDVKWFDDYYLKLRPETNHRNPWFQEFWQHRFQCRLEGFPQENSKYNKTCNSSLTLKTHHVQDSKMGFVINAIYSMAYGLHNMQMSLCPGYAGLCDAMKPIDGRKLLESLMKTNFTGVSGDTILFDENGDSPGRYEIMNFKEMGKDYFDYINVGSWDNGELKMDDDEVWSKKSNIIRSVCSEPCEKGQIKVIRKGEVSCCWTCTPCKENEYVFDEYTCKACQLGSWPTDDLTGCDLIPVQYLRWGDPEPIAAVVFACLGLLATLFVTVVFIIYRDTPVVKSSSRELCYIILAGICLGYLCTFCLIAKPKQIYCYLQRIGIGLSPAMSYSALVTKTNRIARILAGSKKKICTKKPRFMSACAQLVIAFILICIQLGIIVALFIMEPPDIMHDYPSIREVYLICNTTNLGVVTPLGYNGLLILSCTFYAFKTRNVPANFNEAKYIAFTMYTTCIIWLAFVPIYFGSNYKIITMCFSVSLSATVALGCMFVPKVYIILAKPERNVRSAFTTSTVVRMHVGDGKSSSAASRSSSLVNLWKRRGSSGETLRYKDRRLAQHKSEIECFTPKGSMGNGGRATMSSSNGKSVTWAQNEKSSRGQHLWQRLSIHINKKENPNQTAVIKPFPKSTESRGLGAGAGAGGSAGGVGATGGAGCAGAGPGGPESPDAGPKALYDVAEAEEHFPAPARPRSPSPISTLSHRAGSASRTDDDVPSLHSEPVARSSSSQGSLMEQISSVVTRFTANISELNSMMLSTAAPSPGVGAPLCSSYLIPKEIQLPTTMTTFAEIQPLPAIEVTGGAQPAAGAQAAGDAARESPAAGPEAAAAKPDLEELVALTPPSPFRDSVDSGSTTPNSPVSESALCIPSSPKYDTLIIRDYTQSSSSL
UniProt P15209, residues 32-821: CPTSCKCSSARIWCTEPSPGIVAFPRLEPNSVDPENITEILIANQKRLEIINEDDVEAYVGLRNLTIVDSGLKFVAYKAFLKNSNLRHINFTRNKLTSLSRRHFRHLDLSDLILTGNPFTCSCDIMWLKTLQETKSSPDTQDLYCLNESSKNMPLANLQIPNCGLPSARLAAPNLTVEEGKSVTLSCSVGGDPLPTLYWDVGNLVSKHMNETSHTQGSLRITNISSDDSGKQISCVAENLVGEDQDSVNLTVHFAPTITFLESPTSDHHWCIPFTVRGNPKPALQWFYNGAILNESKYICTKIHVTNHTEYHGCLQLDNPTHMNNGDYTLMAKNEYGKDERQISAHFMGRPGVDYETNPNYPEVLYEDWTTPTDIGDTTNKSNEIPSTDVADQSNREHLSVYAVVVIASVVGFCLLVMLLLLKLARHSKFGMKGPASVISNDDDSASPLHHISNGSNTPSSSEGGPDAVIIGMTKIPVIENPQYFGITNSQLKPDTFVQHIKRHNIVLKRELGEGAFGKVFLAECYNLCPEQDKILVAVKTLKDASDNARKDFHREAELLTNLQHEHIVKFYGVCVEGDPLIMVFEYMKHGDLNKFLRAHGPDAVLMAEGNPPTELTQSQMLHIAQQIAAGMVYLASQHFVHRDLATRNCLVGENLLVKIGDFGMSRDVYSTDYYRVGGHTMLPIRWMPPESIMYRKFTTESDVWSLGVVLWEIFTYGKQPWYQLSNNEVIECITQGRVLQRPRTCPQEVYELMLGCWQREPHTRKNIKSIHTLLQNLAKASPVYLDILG

Assays:
[1] = target: human Flag-tagged mGlu2 (human) (UniProt Q14416); assay: proximity ligation; HEK-293 cells expressing human Flag-mGlu2 or Flag-mGlu3 with or without human TrkB; anti-TrkB and anti-Flag antibodies overnight at 4°C
[2] = target: human Flag-tagged mGlu3 (human) (UniProt Q14832); assay: as above
[3] = target: human Flag-tagged mGlu2 (human) (UniProt Q14416); assay: co-IP; HEK-293 cells transfected with human Flag-mGlu2 or Flag-mGlu3 with or without human TrkB; 1.5 mg solubilized proteins, anti-Flag M2 affinity gel beads, 4 hours at 4°C, washes with 500 mM NaCl; blot with anti-TrkB; cells also treated 15 min with vehicle, 7,8-DHF (1 μM), LY379268 (1 μM) or LY341495
[4] = target: human Flag-tagged mGlu3 (human) (UniProt Q14832); assay: as above
[5] = target: mGlu2-Venus (human) (UniProt Q14416); assay: FRET or BRET; BRET saturation in HEK-293 cells: constant amount of Rluc donor construct (20 ng per 100,000 cells), increasing amounts of Venus acceptor construct (0 to 40 ng per 100,000 cells); coelenterazine H 5 μM; EAAC1 cotransfected
[6] = target: Metabotropic glutamate receptor 2 (mGlu2), endogenous mouse (mouse (endogenous in prefrontal cortex, brain slices and cortical neurons)) (UniProt Q14BI2); assay: co-IP; co-immunoprecipitation followed by Western blotting from PFC of wild-type and mGlu2-/- mice (fig. S1B)
[7] = target: Metabotropic glutamate receptor 2 (mGlu2), endogenous mouse (mouse (endogenous in prefrontal cortex, brain slices and cortical neurons)) (UniProt Q14BI2); assay: co-IP; primary mouse cortical neurons, 0.5 mg solubilized neuronal proteins, mGlu2 nanobody (2 μg); washes with 500 mM NaCl; neurons treated with LY379268 or 7,8-DHF (fig. S3)
[8] = target: Metabotropic glutamate receptor 2 (mGlu2), endogenous mouse (mouse (endogenous in prefrontal cortex, brain slices and cortical neurons)) (UniProt Q14BI2); assay: proximity ligation; mouse brain slices (OB, PFC, DG, CB) of wild-type or mGlu2-/- mice; anti-TrkB antibody, anti-6-His antibody and anti-mGlu2 nanobody (200 nM), 48 hours at 4°C; mice also injected with vehicle, LY379268, 7,8-DHF or LY341495
[9] = target: mGlu3-Venus (human) (UniProt Q14832); assay: FRET or BRET; BRET saturation in HEK-293 cells: constant amount of Rluc donor construct (20 ng per 100,000 cells), increasing amounts of Venus acceptor construct (0 to 40 ng per 100,000 cells); coelenterazine H 5 μM; EAAC1 cotransfected

binding [1]: binds | binding [2]: no binding | binding [3]: binds | binding [4]: no binding
Substance: human TrkB (from UniProt Q16620 32-822) (receptor)

binding [5]: no binding
Substance: mGlu5-Rluc (from UniProt P41594 21-1212) (receptor)

binding [6]: binds | binding [7]: binds | binding [8]: binds
Substance: BDNF/NT-3 growth factor receptor TrkB, endogenous mouse (from UniProt P15209 32-821)

binding [5]: binds | binding [9]: no binding
Substance: TrkB-Rluc (from UniProt Q16620 32-822) (receptor)
